Over roughly 33,000 sequences, “E-score (-0.5 to 0.5)” has its median near -0.041; the highest 2% begin near 0.37. The list shows a part of the results.
These sequences were tested against T1, Ecm22 (UniProt Q05958) (assay: PBM E-score (8-mer binding enrichment) (E-score (-0.5 to 0.5)); higher = stronger / more preferred TF binding; most listed sequences are background and not binding sites). Conditions: protein concentration: 200 nM; construct: GST-full length.
T1 sequence: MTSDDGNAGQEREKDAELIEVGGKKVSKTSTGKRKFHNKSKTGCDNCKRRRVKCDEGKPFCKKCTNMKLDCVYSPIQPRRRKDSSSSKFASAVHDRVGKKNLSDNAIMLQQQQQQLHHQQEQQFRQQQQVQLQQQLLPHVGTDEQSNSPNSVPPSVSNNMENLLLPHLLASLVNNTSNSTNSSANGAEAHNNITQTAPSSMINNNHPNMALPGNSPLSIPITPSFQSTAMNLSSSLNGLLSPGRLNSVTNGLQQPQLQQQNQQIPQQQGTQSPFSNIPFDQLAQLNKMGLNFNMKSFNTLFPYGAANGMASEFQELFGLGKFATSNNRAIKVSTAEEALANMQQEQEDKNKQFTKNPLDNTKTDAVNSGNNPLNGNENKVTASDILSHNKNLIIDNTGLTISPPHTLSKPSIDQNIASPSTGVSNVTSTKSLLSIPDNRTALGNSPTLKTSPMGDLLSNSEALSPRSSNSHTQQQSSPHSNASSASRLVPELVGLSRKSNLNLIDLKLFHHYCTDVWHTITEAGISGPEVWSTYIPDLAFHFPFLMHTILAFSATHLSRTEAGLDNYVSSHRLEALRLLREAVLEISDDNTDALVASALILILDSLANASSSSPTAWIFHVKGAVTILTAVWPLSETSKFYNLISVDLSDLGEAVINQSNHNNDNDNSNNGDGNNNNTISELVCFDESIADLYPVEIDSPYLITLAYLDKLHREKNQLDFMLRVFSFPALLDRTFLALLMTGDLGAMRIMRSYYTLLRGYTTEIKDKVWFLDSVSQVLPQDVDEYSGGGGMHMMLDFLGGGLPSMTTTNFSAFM
How it was run: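 Detection of bound protein used fluorescent anti-GST, with scans normalised by masliner. The proteins were GST-tagged yeast transcription factors applied at about 100-200 nM to universal all-10-mer Agilent arrays made double-stranded by primer extension. Each ungapped eight-base word, pooled with its reverse complement, was scored with an E-score from the Universal PBM Analysis Suite.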

Sequence | PBM E-score
CCCCGGCA | -0.256
CATTACAG | -0.0449
AGGCATAG | -0.159
TCGTAGAA | 0.384
ATAGGTGC | -0.00608
CGAGATAA | 0.264
CGCCATCA | -0.223
GGGGTGTA | -0.159
CGGGTTAA | 0.252
CATGACGG | -0.253
AGCACCTA | -0.239
AACAGAAC | -0.0853
TAGAAGGA | -0.247
AGGCTCTG | -0.168
CACCTTAC | -0.0784
ATAGCGTG | 0.0189
ATTGATTC | 0.0698
ACACATGA | -0.0752
ACCGTCTG | -0.112
AGGATAGC | 0.116
TCAACTGA | -0.205
AAATGGTG | -0.0494
CCGGGCCG | 0.0318
TATCCAGA | -0.129
CAGGTCAG | -0.0995

Sequence | PBM E-score
GCAGGTCA | -0.0813
AACCGGGT | -0.0312
ACACAGAA | -0.1
AAGCAGCC | -0.226
GGAAACGA | 0.426
TCCGCCGA | 0.0363
AATGCCAT | 0.00168
AACCGGTT | -0.0174
AGAATTAA | -0.113
CTAACGTA | 0.226
GGTATCTA | 0.0426
GTAATTAA | 0.0811
AGAGTGAC | -0.237
ACGCTCTC | 0.112
TCATATGA | -0.00144
GATTATGC | 0.172
ACGGCAAC | 0.136
GATATAAA | -0.022
CCCGAGCG | 0.173
AAGAACCT | -0.208
CGTTGAGA | -0.0277
AGGCTTTC | 0.0396
ACAACTTG | -0.229
CTATGTCA | -0.157
ACTATTGG | -0.185

Sequence | PBM E-score
CCTAATGA | -0.0616
ACACCACA | 0.0653
ACCCTTGC | -0.182
TAAATTGA | -0.171
ATCCCGAA | -0.0384
AATGTTCT | -0.0835
AGAGCATG | -0.13
CGGTACTA | 0.0459
TGCATACA | -0.0114
CTACTAAG | -0.0962
GTAGTCTA | 0.0808
AAATAGGT | -0.0638
AGCGCGTA | 0.248
GCGGACGA | 0.0988
ACCTGAAG | -0.205
AGTAAACT | 0.14
CGGCAGAG | -0.128
AAGTCATG | -0.0266
AAATGAGA | -0.0362
CACTGAGA | 0.00578
ACACATTC | 0.0782
AGAGGGAA | -0.266
CCGCAACC | -0.176
AATCGTTG | 0.165
CGTTGAAA | 0.0935

Sequence | PBM E-score
GCTCTCTA | -0.138
GCGTAAAA | 0.217
ATGCGATG | 0.148
ACGAGATG | 0.365
TCACCAAA | 0.0237
CTTTTAGC | -0.0889
AGCCGACC | 0.0441
CATTAGCC | -0.176
CCACTGAA | -0.155
CTCTAAAC | 0.0408
GCGAGCAA | 0.198
GGATGATA | -0.0166
AACTCTAA | -0.0908
CTGGCCAG | -0.16
AGCACAAG | -0.222
CGCGCCCG | 0.00528
ACGCTCAA | 0.0449
CGCAAATC | 0.145
CGCCGCAC | 0.0475
CGACTGTC | 0.0412
AAGCCTGT | -0.118
CTGCCACA | -0.191
GTTACCTA | -0.15
CAGGCTAA | -0.123
CGAAAACA | 0.154

Sequence | PBM E-score
AGATCCGA | 0.233
ATTTCCGC | 0.0426
CGAGAGCA | 0.162
AGACCGGA | 0.0922
ATCCCCTA | -0.329
AATTTCCC | -0.00666
CTTGAAAA | -0.0528
AACCGGTC | 0.0102
CGCCCCCA | -0.157
ATAGCATA | 0.142
GCTACTAA | -0.161
AACGCGGA | 0.117
GGAGCCAA | -0.272
GCCGGGGA | -0.256
ATTAGGGG | -0.108
AGGGGTTG | -0.158
ATGGTACA | -0.122
GAAGAAGC | -0.234
TGCGACAA | 0.141
ACCCGAAC | 0.273
AGGAAGGG | -0.211
AATCTTGG | -0.37
CGGCCGTA | 0.34
CTCTAGCA | -0.206
AAAAAAAA | -0.156

Sequence | PBM E-score
ACTGTAGC | -0.0736
CCGCCAGG | -0.179
CAGTGAGC | -0.164
TCCTCCCA | -0.135
CACCCACA | -0.174
CCACGGGA | -0.0405
GATTATCC | -0.00311
TAGACCCA | -0.295
AGGTACAC | -0.0213
CTACGGCC | 0.018
CGTTCCCC | 0.428
TGAATGCA | 0.109
CCGGAATC | -0.169
CGGGGCAC | -0.0581
ACGATTTA | 0.245
GGAATCCA | -0.207
GGTAACGA | 0.317
ACGTATGA | 0.17
GATTTTCA | 0.0553
AGGGGTAG | -0.0801
AGACAGTA | -0.005
GAAAGCTA | -0.13
AACGTCTG | 0.111
AATATCAT | -0.0211
ACTCAACT | 0.0268

Sequence | PBM E-score
TCCACAAA | -0.133
AATCCTAA | -0.0278
ACCCCTCC | -0.143
AAGCCACT | -0.0688
CTAGCAAA | -0.155
AAGGAGAT | -0.103
ACGAGACT | 0.348
ACCCTACA | -0.0482
CATTCGAC | 0.0337
CCGCAGGC | 0.00157
AATTGGGC | -0.163
CCTAGTGC | -0.153
AAGCAGAA | -0.0277
GGCATGAA | 0.0607
AGAACGCC | -0.083
AATGTAAT | 0.115
CCGCGTCC | -0.00121
GATTAACC | 0.0103
AATGCAAA | 0.0122
GGACGTCA | -0.176
GGCATCTA | -0.0106
ATTCTTAG | -0.159
ACAAACTA | -0.025
ACACCCTG | -0.25
AATTCTCG | 0.319

Sequence | PBM E-score
CCCCCGTC | -0.206
GATCTGGA | -0.179
AGCTCGAT | 0.0946
GAAGCTAA | -0.115
GCTACTCC | -0.0977
CTGTAAAA | -0.0594
ACAGTATA | 0.165
CGGCGAAG | 0.109
GTATTGAA | 0.083
AGTTCTCA | -0.137
TATACCAA | 0.125
AAAAAATA | 0.042
TCTGGCAA | -0.17
GCTATCAA | -0.00823
AGGTTATG | -0.0657
GTCTACCA | -0.215
TGTCTCAA | -0.202
AACAAATC | 0.115
CGCGCGTA | 0.198
CACGCCGA | -0.194
ATGGGTGA | -0.2
CCGACACG | 0.00977
CTCTCTAC | -0.0212
CGGTCGCA | 0.075
GGGCACCA | -0.194

Sequence | PBM E-score
GTTCCACA | 0.13
ACTATTAT | 0.0484
GGAGCCAC | -0.0846
CCGCTGCG | 0.061
ACTGGTTC | -0.0328
ATCGAGCA | 0.0117
ATGGTCTC | -0.128
CCAACCAG | -0.0857
ATACGTAA | 0.278
CGCAGGCA | -0.107
CAAATGGG | -0.259
CGTCACGA | 0.183
CTCTCCCC | -0.293
GCTTTTCA | -0.00964
CGGCTACA | -0.00011
AGGCACTC | -0.0768
AATAGATA | -0.0505
CTCGCGAG | 0.257
GTCACGTA | 0.169

From the supplement of paper PMC3334620
